Source: PubChem BioAssay AID588855 (National Center for Advancing Translational Sciences (NCATS), 2011)
Screen size: about 410,000 compounds; about 5,000 (1.2%) were called active. The shares of active, inactive and inconclusive entries below differ from those in the screen. Calls follow the shape of the dose curve; as a rule, active = well fitted inhibition curve with a large enough effect; inconclusive = small, poorly fitted or top-dose-only effect; inactive = no such curve, though single readings can be large or run the other way. Potencies beside an inconclusive call are fits to weak or partial responses and may not hold up.

assay: qHTS for Inhibitors of TGF-b; details: HepG2 CAGA-GFP TGF-b/SMAD3 reporter, GFP fluorescence, 18 h, TGF-beta stimulated, 500 pg/mL final; series mostly up to 46.1 µM; also: nearly all actives have a fitted effect of over 65% in size
Method in brief: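 Per well, imaged GFP fluorescence of HEPG2 CAGA-GFP cells gives the signal; cells get compound, then TGF-beta (500 pg/mL final), 18 h at 37 degrees C; %Activity versus -TGF-beta and +DMSO controls.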
Potency is read from the fitted curve at half-maximal effect; tags tell the direction and shape of the fitted curve.

Structure (SMILES)	Potency
Cc1ccc2nc(CS)[nH]c2c1	inactive
CC1(C)C/C(=N\NC(=S)Nc2ccccc2F)c2cc(O)ccc2O1	inconclusive: 25.1 µM [inhibitor, single point]
Cc1cc(C)c(S(=O)(=O)N2CCN(Cc3nc4ccc(C)cc4o3)CC2)c(C)c1	inconclusive: 35.5 µM [inhibitor, single point]
COc1ccc(C(=O)C2CCN(C(=O)Nc3ccc(C)cc3)CC2)cc1	inconclusive: 6.31 µM [inhibitor, full curve, poor fit]
CCC(=O)Nc1ccc(N2CCCCC2)c(C(=O)Nc2ccccc2C)c1	inactive
Cc1cc(C(=O)NC2CCCc3ccccc32)no1 (centres undefined)	inconclusive: 1.78 µM [inhibitor, partial curve, poor fit]
COc1ccc(OC)c(NC(=O)CN(C)CC(=O)Nc2ccccc2Br)c1	inactive
CCOC(=O)c1ccccc1Nc1cc(C)nc2nc(-c3ccco3)nn12	inconclusive: 35.5 µM [inhibitor, single point]
Cc1ccc(OCCSc2ncnc3sc(C)c(C)c23)cc1C	inactive
CC(C)N(C(=O)c1cc2c(Cl)nc3ccccc3c2s1)C1CCCCC1	inconclusive: 0.126 µM [inhibitor, full curve, poor fit]
COc1ccc(CN(C(=O)CSc2nnc(-c3ccccc3C)o2)c2ccc(F)cc2)cc1	inconclusive: 35.5 µM [inhibitor, single point]
CCOC(=O)c1cc(-c2ccccc2)sc1NC(=O)C(C)Sc1nnc(N)s1 (centres undefined)	inconclusive: 7.94 µM [inhibitor, partial curve, poor fit]
COc1cccc2sc(N3CCN(C(=O)CS(=O)(=O)c4ccc(Cl)cc4)CC3)nc12	inconclusive: 0.891 µM [inhibitor, full curve, poor fit]
COc1cc(NC(=O)c2cccs2)c(OC)cc1NC(=O)CCC(=O)Nc1cccc2ncccc12	inactive
CN(C)c1ccc(C2=Cc3ccccc3C2)cc1	inconclusive: 35.5 µM [inhibitor, single point]
O=C(N/N=C/c1cccc(Br)c1)c1ccc(Cn2cc(Br)cn2)o1	inconclusive: 35.5 µM [inhibitor, single point]
Cc1ccc(Sc2ccc(NC(=O)CCN3C(=O)NC4(CCCC4)C3=O)cc2)c(C)c1	inconclusive: 35.5 µM [inhibitor, single point]
CCCCCCNC(=O)CNC(=S)N(Cc1cccs1)C1CCCCC1	inconclusive: 22.4 µM [inhibitor, single point]
OC(c1ccccc1)c1nc(-c2cccc(C(F)(F)F)c2)cs1 (centres undefined)	inconclusive: 20 µM [inhibitor, single point]
